# In the supplement of paper PMC3334620:
# The full ranking holds about 33,000 sequences; the median of “E-score (-0.5 to 0.5)” is about -0.012, and the highest 2% start at about 0.29. The list shows a part of the results.
# Target: T1, Ybr033w (UniProt P38073)
# T1 sequence: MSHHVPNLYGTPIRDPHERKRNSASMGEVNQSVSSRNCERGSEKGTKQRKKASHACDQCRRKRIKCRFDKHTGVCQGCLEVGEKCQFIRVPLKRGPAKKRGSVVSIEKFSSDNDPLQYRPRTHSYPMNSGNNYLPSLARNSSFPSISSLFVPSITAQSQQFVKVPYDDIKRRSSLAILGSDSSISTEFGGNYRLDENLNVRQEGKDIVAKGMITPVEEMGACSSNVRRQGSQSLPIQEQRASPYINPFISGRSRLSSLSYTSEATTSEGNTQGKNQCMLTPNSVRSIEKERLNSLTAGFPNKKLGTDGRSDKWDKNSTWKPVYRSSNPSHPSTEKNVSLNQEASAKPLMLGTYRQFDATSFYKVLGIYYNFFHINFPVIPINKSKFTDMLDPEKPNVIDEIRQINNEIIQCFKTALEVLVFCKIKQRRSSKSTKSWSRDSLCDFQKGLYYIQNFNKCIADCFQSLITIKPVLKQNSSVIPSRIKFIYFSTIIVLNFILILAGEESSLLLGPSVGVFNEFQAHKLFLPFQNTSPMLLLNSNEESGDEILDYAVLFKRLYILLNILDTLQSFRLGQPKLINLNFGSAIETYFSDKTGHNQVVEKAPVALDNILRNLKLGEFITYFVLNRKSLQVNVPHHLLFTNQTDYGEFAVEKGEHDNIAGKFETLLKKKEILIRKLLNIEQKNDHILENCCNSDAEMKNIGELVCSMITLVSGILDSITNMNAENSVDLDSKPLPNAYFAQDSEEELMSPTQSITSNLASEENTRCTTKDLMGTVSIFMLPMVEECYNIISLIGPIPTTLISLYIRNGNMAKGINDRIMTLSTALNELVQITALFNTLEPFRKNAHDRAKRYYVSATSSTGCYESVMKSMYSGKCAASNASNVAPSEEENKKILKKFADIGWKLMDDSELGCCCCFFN
# Test: PBM E-score (8-mer binding enrichment) (E-score (-0.5 to 0.5)); higher = stronger / more preferred TF binding; most listed sequences are background and not binding sites
# Conditions: protein concentration: 200 nM; construct: GST-full length
# Summary of the method: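 PURExpress in vitro transcription/translation supplied GST-tagged yeast transcription factors, either full-length or DNA-binding domain. Applied at about 100-200 nM to universal all-10-mer Agilent arrays double-stranded by primer extension, the bound protein was detected with fluorescent anti-GST. E-scores, modified Wilcoxon-Mann-Whitney statistics, were given by the Universal PBM Analysis Suite to ungapped eight-base words pooled with their reverse complements after masliner normalisation.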
row,Sequence,PBM E-score
1,ACATTGCT,0.122
2,CTTGTTGA,0.193
3,AATTCTAA,0.21
4,AAACATCG,-0.0863
5,CAGCATAA,0.152
6,CATAAAAA,0.258
7,CCTAAATC,0.0625
8,GGATTCAA,0.0566
9,CAGACGCC,-0.195
10,GCGTTCCA,-0.142
11,ATTTGCAG,0.253
12,CCGCCCAA,-0.228
13,AGGCGAAG,-0.0699
14,CCTTGGCC,-0.318
15,CAGAGGAG,-0.14
16,CAACGCTC,-0.131
17,GCGTTTCC,-0.069
18,AGTCGTAG,-0.141
19,GCATATTA,0.14
20,GTACGTCA,-0.0422
21,AGCGTGAT,-0.112
22,GAGTTCTA,0.021
23,ATGATTCG,0.0644
24,CTACCTTA,-0.0197
25,TACAGGAA,0.0821

row,Sequence,PBM E-score
1,CCTTTCAC,0.0584
2,ATTGGCCG,-0.143
3,GCGTTACA,0.0401
4,GCAGCAGA,-0.0571
5,ATCTGTGG,-0.1
6,AGTACTTC,0.118
7,GCCCTGTA,-0.0611
8,GTTTTCTA,0.276
9,ATAATCCG,0.383
10,GCAAAAAA,0.284
11,ATTCCGGA,0.387
12,GAAAAAGA,0.231
13,TATAATGA,0.171
14,CAGGAATC,0.113
15,CGTATCCC,-0.155
16,CGCACCAG,-0.0226
17,ATTAAGTG,0.167
18,GGTTCAAA,0.0694
19,AGAACCAG,-0.0518
20,GCGCCACC,-0.215
21,GCGCGGGA,-0.168
22,ATTTCATC,0.222
23,TCGCACCA,-0.0242
24,CGCACGGA,-0.102
25,GAGATTAC,0.0931

row,Sequence,PBM E-score
1,CTACACCC,-0.269
2,CGGTCGCC,-0.261
3,GCGGCCAC,-0.273
4,ACCACACT,-0.00237
5,TTACCCAA,0.0264
6,CGGTATCC,-0.266
7,ATAAATAT,0.396
8,CTGAGGGC,-0.34
9,ATAATTGA,0.265
10,GACGAAGA,0.0535
11,TAGTGCGA,-0.0305
12,CCCTCGCG,-0.226
13,TAGCTTGA,-0.0114
14,CGTGTAAC,0.0936
15,ATCCCTCC,-0.0542
16,AGTGAGAA,0.125
17,AGTACCAT,0.0195
18,GCTCGCTA,-0.0129
19,ATAGGAGG,-0.188
20,TGGAATAA,0.417
21,CAGACATG,-0.0854
22,AGCTACCC,-0.096
23,ATTATGCC,0.126
24,ACAACCGA,0.0383
25,CGACCGTC,-0.279

row,Sequence,PBM E-score
1,AGCGCGCG,0.0624
2,AATTCACT,0.249
3,ATCCTCAC,0.0712
4,ATTGAAGA,0.0645
5,ACAGTCCT,-0.167
6,AAACCTCG,-0.0726
7,ATCTAAAA,0.0739
8,CTGATAAC,0.0552
9,CGCACTCC,-0.148
10,AATTTTTC,0.31
11,ACCCGAAT,-0.0501
12,ACTGACTG,-0.121
13,TAATACTA,0.362
14,AACGGACA,-0.0682
15,AGGCGTAC,-0.103
16,ACGGAGCC,-0.209
17,CCTAATGC,-0.0998
18,ACAGTGCC,-0.0506
19,ACCTCGGC,0.0555
20,ACTTGTAG,0.0973
21,GACTTAGC,-0.116
22,TCCTCGAA,0.126
23,GAAAATTC,0.285
24,ATCCGCAC,0.181
25,ATCTTGCC,-0.0408

row,Sequence,PBM E-score
1,CCATAAAG,0.01
2,AGACGCAT,-0.025
3,GGATACAC,0.0433
4,CACAATCA,0.0822
5,CTAGTTTC,0.14
6,TCCCCGGA,0.0481
7,GAACCGCC,-0.0843
8,CAGGGGAA,-0.0526
9,CGTTCGCC,-0.0782
10,CGTAAGGC,-0.296
11,GTAACAAC,0.124
12,AAGTCTTA,-0.00514
13,GGCGTGCA,-0.204
14,GCTAACAA,0.00129
15,TACACACA,0.264
16,CTAACAAA,0.141
17,CGTCGATC,0.139
18,CTCATCGC,-0.035
19,ACCATAGA,-0.113
20,GTGCATGA,0.043
21,AACCAGTA,0.0849
22,AAACTGAT,-0.07
23,GCCTACCA,-0.159
24,CACACCTG,-0.191
25,ATAATGAG,0.0777

row,Sequence,PBM E-score
1,AGGCACGG,-0.174
2,CTCAGTTC,-0.0184
3,AGATTGAT,0.111
4,AAGACGTG,-0.0345
5,GCATAGTA,0.112
6,CATGTTGA,0.284
7,GCCGTCTA,-0.121
8,ATCTGTCG,-0.0536
9,CCATGCTA,-0.217
10,ATCCCTTA,0.0596
11,TCTTCAAA,-0.00132
12,GTCTGGAA,-0.065
13,GACGTTAC,0.0581
14,AAGGAGCG,-0.0398
15,AGGGTACC,-0.392
16,GCGACATA,-0.0158
17,AAGATGGC,0.0428
18,GATATCCC,-0.0193
19,AATTCACC,0.17
20,CAATGTGC,0.0548
21,GATATGCA,-0.0183
22,ACGGATCC,-0.027
23,ATGATCGA,0.0659
24,GTGCAACA,-0.0962
25,TACCCTAA,0.0534

row,Sequence,PBM E-score
1,AGGTTTAT,0.178
2,GTGTGATA,0.191
3,CCTGTGCG,-0.0705
4,CAACTTAA,0.194
5,CGATGTTA,0.159
6,AGTAGAAA,0.151
7,CACTTACC,0.127
8,GAAGTAAC,0.0976
9,TGCCATAA,-0.0526
10,CGGGGAAA,0.212
11,CTCAGGTC,-0.238
12,CATGACCC,-0.22
13,CACTTGCC,-0.111
14,GCCACCAC,-0.159
15,CTCAACCC,-0.00281
16,ATTTATGG,0.154
17,GGAACAGA,0.0538
18,CTGCCTAA,-0.0827
19,CATGTAGC,-0.126
20,TCTTTGCA,0.143
21,AAGCGTGC,-0.0736
22,GCATACGA,-0.00243
